Over roughly 33,000 sequences, “E-score (-0.5 to 0.5)” has its median near -0.012; the highest 2% begin near 0.27. This is one part of the list.
These sequences were tested against T1, Vhr1 (UniProt P40522) (assay: PBM E-score (8-mer binding enrichment) (E-score (-0.5 to 0.5)); higher = stronger / more preferred TF binding; most listed sequences are background and not binding sites). Conditions: protein concentration: 200 nM; construct: GST-full length.
T1 sequence: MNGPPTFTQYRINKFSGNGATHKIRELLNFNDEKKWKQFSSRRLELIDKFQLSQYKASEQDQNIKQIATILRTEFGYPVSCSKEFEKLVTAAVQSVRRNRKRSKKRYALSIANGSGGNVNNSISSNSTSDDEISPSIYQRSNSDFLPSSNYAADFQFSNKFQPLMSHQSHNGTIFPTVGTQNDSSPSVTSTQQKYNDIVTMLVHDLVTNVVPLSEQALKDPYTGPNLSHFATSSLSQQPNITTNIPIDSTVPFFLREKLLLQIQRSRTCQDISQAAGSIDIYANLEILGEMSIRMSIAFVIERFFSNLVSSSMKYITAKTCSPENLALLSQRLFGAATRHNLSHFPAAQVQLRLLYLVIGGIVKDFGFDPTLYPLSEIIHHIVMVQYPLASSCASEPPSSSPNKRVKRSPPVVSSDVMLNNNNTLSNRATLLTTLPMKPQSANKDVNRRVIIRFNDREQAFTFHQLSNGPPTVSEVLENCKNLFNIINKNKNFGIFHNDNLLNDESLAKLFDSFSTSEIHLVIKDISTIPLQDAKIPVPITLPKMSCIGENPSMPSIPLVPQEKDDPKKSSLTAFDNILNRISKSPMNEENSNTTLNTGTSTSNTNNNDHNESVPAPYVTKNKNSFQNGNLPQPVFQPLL
Procedure: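 Universal 'all 10-mer' protein binding microarrays (Agilent AMADID 015681) probed with GST-tagged S. cerevisiae TFs (full-length or DBD) made by in vitro transcription/translation (PURExpress), about 100-200 nM. Bound TF was detected with fluorescent anti-GST. Each ungapped 8-mer (which stands for itself and its reverse complement) is scored by the PBM enrichment score (E-score), a modified Wilcoxon-Mann-Whitney statistic from -0.5 to +0.5, computed with the Universal PBM Analysis Suite. Scale: above 0.35 generally sequence-specific binding.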

Sequence | PBM E-score
ACTTATCC | -0.0236
AGTTGAGG | -0.0649
GCCTGGAC | -0.0385
AAGGTTTC | -0.0254
ACCTGCTA | -0.0446
TACAGGCA | 0.0836
GTGTACAC | 0.0577
AGGGCATA | -0.112
CGTGTTAC | 0.147
GTGAGTAA | 0.24
ATTAAATC | 0.16
ATTGATTA | 0.0719
GTATAATA | 0.144
ACGTCGCC | -0.0978
ACCGGGGG | -0.135
GTCCTAAA | 0.0155
ACACGCTA | 0.0344
GCGACTTA | -0.104
AGTCATGA | 0.466
CTCCGTAC | 0.0746
CGATAAAG | -0.215
CAATGTAG | 0.00218
GACGTAGA | -0.195
AGGTCACC | -0.16
AGCCAGAG | 0.0139

Sequence | PBM E-score
AGATCATG | -0.0772
ACGCCGGG | -0.00379
ACCCAGCT | 0.0775
CCTGTCTC | 0.0917
AAGTGCAC | -0.102
AATAATAC | 0.054
CAGTACGA | 0.205
CTAGATTA | -0.0479
ACCGAAAC | 0.0907
TCCAACGA | -0.053
CTTAGGGC | -0.277
ATTGTGCC | -0.0216
CAAAGTCG | 0.0683
AGTGGTAG | -0.0489
GCGCGAAC | 0.0578
ATGGTAGG | 0.104
CCACCAGG | 0.0638
AGTAGGGC | -0.124
ACCCTTTG | -0.15
CGTTTTAC | -0.192
AACGGGAT | 0.124
CTATAAAC | -0.0253
CTACGCCC | 0.0207
TAGTTCGA | -0.0462
CCTCCCTC | 0.0814

Sequence | PBM E-score
GCAACTCC | -0.159
GAACCCAA | -0.0255
ATCAGATG | 0.00821
ATTTGACG | -0.0841
GTATGGGA | -0.178
GGATCTCA | -0.0499
CGTGATAC | -0.05
AATGCGGC | -0.0647
CGGTGGTA | 0.0145
GTAGGTCA | -0.128
GAGTTGGA | 0.0988
GACATCCA | 0.004
GCCAATCA | -0.0381
GAGGCAGC | -0.137
CGCTAAGC | -0.0793
AGGACTGA | -0.143
AGTCATTA | 0.368
ACAGAGAC | 0.146
ACACTCGC | 0.164
GAAATTGC | -0.136
GGTTACAC | -0.0231
AAACCACG | -0.079
CCCGAGAC | -0.0145
ACCTGCAC | -0.0149
CATATCGC | 0.108

Sequence | PBM E-score
GGGGGAAC | 0.0678
TGAAACAA | -0.0756
TACGCAGA | 0.123
AACCTCCG | -0.142
CGTAAGAC | -0.223
GCGTCCCA | -0.106
AAAGCCCT | -0.213
TAGTATAA | 0.037
ATCTGGGG | -0.0365
ACTGTGCC | -0.0794
AAGATCCG | -0.183
GGTTTAGA | -0.014
CTAACGAC | -0.185
CGAGGCCC | -0.0877
GGACAACC | -0.166
ATCCATGC | 0.0584
CCAACGTA | -0.0646
CCCTGAGA | -0.099
CCAACCCC | 0.0253
ACCATTAC | 0.235
CAACGTGG | -0.0312
TGCACCCA | 0.113
CGAAAGCA | -0.046
GACTTCTC | -0.129
CATTGTCA | 0.0479

Sequence | PBM E-score
ATAGGGTC | 0.197
AGGTAGAC | 0.0654
CTCGCGTA | -0.105
GATGTGGC | 0.0698
GTGTACCA | 0.163
CCAGGACC | -0.0337
ATTCACTA | 0.0464
GAGCGGAC | -0.168
TATATCGA | 0.244
ACAAATGT | -0.0484
CAGCAAGG | -0.0914
GAGGAAGA | -0.0347
GTTCCATA | 0.0199
CAGAATTA | -0.0726
CAGTGGCA | -0.257
AGGGATGA | 0.15
ATGAGTTA | 0.0485
ATACTAGA | 0.0677
TTCCAAAA | -0.214
CGCGGGTA | 0.212
AACGACTG | -0.0789
AGCTGCAT | -0.214
CACCTACG | -0.0294
AAATTTCC | -0.237
AGTAGGAT | -0.00756

Sequence | PBM E-score
ACGTGTAT | 0.116
AACACTAG | 0.0236
ATACGGCA | 0.0905
CGAAGTAA | -0.107
GCGATACA | 0.0396
ATGGCCCC | -0.228
ATATCAAT | 0.214
ACATCTGA | -0.245
CCGCGCTA | 0.225
ATCCTCTG | -0.134
AATTGCAT | -0.0683
CTAGATAA | -0.0922
GGTCCCAA | -0.0206
CGACTGGA | 0.0449
CCCCCAGC | -0.15
CATACCGA | 0.00498
AGACCTGC | -0.147
AACCGAAA | -0.242
AAGACTTA | -0.0601
AGTCTGCC | 0.0302
GGGCTGTA | -0.134
TACCGGTA | 0.0264
AGACGATA | 0.0401
AATGCGGA | 0.0182
AACCAAGT | -0.0417

Sequence | PBM E-score
ATGTGACC | 0.216
ATGAGAGA | -0.025
AAGCAGGA | -0.00459
CCATATGG | 0.0743
GGCCTTAA | -0.212
TCTGCCAA | -0.205
TTCTGCAA | -0.0232
ATATGCTC | 0.143
ATACGCAT | 0.147
CACGGCGG | 0.102
CTATACGA | -0.0332
ACCTATCA | -0.0422
ACCTAGTA | 0.0588
AAGATAAG | 0.0463
AATCATCT | 0.185
CCTGGTCA | 0.0815
AGATCGTG | -0.0385
AAGGCCCA | -0.0641
CACGCATG | 0.0925
GTGGTTAA | 0.176
GCGGGGAC | 0.216
AGGTATAA | -0.0154
